Assay results published in publication PMC2408963 (PLoS ONE, 2008).
Where no end group is shown, it is not given here.

T1: murine TAP1/TAP2 complexes (Mus musculus, UniProt P21958+P36371)
T1 construct: full-length cDNAs encoding the murine TAP transporters were amplified from plasmids pFM370.1 and pFM372.3; made in house; host or cells: Sf9 insect cells (baculovirus), used as microsomes
T1 sequence (P21958 1-724): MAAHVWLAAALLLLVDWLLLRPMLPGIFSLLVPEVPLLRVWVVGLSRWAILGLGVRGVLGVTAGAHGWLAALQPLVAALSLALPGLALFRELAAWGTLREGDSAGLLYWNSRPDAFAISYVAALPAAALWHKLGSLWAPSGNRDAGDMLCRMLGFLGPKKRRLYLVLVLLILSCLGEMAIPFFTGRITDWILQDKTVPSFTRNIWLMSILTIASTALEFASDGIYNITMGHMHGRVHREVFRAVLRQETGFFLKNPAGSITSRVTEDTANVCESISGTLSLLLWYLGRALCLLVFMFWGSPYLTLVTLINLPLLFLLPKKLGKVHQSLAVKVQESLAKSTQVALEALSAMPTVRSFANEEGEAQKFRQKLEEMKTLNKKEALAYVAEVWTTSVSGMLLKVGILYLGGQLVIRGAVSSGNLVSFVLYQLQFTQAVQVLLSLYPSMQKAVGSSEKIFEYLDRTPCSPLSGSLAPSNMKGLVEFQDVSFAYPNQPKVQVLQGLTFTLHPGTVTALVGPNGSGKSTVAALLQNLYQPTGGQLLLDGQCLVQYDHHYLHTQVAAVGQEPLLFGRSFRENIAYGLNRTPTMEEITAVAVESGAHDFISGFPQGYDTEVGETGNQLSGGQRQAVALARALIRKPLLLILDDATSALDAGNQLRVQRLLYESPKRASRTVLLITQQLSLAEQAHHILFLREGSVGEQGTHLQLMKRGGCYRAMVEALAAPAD
T1 sequence (P36371 1-702): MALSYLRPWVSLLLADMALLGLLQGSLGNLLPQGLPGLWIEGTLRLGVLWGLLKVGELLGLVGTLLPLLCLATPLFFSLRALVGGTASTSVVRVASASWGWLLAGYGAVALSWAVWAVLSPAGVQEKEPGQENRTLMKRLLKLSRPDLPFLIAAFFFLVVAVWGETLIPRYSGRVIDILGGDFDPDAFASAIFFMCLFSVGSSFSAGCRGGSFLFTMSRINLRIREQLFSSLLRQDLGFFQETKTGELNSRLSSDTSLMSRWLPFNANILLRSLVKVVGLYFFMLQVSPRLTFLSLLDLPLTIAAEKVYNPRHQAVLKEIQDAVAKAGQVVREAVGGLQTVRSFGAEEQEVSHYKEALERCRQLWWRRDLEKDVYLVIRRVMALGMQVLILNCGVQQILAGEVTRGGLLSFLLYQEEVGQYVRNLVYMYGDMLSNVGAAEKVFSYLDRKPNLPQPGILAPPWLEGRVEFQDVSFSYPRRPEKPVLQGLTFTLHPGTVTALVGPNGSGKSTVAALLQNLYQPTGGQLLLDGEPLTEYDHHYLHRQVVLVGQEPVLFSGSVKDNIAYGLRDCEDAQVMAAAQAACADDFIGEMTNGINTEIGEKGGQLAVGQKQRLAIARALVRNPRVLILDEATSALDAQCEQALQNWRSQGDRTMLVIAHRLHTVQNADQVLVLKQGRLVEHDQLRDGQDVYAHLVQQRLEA

T2: murine TAP1/TAP2 complexes (mouse, UniProt P21958 1-724; P36371 1-702)
T2 construct: also called mouse TAP complexes; murine TAP transporter
T2 sequence (looked up) 1: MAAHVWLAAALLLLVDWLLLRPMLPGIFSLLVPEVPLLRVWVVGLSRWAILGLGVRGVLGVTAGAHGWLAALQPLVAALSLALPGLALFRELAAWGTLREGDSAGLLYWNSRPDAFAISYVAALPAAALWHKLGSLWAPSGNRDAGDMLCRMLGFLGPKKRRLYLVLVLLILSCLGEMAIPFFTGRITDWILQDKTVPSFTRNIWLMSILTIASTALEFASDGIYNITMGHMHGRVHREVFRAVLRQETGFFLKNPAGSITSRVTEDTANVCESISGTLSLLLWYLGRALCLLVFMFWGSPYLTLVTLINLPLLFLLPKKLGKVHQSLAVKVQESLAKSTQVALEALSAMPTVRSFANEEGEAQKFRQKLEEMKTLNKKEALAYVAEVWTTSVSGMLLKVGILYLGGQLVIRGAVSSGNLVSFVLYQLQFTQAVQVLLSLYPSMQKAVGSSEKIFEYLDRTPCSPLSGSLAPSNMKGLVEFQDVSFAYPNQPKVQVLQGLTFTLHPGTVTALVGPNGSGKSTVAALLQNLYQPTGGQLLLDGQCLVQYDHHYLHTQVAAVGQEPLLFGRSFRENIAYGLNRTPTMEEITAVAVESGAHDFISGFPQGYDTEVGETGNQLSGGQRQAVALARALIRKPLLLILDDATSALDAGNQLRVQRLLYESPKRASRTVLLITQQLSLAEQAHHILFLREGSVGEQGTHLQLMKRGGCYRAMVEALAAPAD
T2 sequence (looked up) 2: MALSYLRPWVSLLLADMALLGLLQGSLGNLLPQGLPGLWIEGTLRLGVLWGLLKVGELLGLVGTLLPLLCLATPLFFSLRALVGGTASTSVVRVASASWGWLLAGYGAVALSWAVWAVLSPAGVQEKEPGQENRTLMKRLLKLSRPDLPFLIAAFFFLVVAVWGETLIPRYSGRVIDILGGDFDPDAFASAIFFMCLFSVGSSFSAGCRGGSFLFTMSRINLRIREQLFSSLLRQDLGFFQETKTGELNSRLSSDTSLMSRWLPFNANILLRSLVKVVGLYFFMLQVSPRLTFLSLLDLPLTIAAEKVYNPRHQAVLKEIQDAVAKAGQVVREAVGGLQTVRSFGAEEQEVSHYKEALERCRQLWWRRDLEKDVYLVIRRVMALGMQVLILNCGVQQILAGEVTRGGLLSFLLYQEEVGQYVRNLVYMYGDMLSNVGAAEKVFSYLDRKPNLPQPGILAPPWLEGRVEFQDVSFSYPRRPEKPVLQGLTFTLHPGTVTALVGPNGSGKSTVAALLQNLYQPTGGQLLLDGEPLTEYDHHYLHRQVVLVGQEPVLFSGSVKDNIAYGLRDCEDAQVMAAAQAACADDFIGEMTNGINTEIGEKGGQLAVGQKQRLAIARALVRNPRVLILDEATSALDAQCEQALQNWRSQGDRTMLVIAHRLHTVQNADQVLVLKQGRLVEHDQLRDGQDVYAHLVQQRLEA


What was measured:
[1] = molecular target: T1, murine TAP1/TAP2 complexes; type: binding; conditions: peptides removed from the dataset as outliers; very hydrophobic
[2] = molecular target: T2, murine TAP1/TAP2 complexes; assay: radioligand binding; conditions: one partner purified

Molecule	competitive binding to murine TAP [1]	Kd [2]
LMYIFAAL	relatively weak or no competitive binding	–
ILMIFISSFL	relatively weak or no competitive binding	–
WAIINTIYF	relatively weak or no competitive binding	–
AFILGIIITV	relatively weak or no competitive binding	–
MIVAWFLLL	relatively weak or no competitive binding	–
RRYNASTEL (also: 125I-labeled, site not given here, also called 125I-R9L) [125I-labeled reporter peptide R9L (RRYNASTEL)]	–	400 nM
